Here are results for twelve compounds from patent US20100113370A1, “METHODS AND COMPOUNDS FOR MODULATING INFLAMMATORY PROCESSES” (priority 2007, published 2010).

Like-named read-outs stand apart in the source and are kept apart here.

The target of assay [1] is T1, ABCC4 (Homo sapiens, UniProt O15439).
T1 sequence (O15439 1-1325): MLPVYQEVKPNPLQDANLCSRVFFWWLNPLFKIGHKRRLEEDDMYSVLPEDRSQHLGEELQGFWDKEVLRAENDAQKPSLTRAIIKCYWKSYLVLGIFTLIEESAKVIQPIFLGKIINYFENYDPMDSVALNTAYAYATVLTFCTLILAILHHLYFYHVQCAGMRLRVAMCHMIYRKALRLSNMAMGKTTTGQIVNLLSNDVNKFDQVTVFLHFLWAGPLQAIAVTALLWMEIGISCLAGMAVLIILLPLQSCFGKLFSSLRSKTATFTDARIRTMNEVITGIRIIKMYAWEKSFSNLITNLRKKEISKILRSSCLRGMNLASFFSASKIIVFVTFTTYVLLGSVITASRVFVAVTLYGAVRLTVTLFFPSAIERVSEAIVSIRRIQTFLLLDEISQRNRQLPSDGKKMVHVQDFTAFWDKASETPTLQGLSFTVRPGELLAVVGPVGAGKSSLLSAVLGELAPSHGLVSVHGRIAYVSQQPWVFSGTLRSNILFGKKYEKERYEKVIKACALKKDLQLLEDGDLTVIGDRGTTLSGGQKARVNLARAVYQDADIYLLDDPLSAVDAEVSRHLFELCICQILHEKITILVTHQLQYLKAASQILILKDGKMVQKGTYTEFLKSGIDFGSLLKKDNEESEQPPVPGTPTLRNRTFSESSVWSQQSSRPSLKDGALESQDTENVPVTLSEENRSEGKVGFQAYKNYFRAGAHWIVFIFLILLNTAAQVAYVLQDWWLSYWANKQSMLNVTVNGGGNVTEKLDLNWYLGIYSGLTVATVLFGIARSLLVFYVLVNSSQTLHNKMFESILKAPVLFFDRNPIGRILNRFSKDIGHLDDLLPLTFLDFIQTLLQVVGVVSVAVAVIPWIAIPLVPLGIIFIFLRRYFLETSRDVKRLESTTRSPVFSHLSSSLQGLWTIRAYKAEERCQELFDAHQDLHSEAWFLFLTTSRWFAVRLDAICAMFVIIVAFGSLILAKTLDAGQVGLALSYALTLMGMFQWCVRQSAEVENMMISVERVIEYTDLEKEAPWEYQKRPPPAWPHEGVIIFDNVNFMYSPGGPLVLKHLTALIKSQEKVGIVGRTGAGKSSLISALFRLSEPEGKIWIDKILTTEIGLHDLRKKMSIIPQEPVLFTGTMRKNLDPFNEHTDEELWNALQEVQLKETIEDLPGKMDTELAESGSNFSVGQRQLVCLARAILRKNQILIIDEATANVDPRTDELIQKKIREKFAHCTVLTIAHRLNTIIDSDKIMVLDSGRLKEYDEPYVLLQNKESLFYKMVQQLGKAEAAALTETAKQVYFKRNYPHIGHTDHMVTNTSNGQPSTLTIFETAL
The note with it: 100 nM [^3H]LTB4, 5 mM GSH, 5 min at 37° C., V79-ABCC4 vesicles.

The target of assay [2] is T1, ABCC4. The experiment in a line: Inhibition of ATP-dependent [3H]LTC4 transport into plasma membrane vesicles from human platelets. In kind it is biochemical. The arrangement: expressed in transfected cells; host or cells: Chinese hamster lung V79 fibroblasts (V79-ABCC4), inside-out membrane vesicles. The note with it: for ATP-dep. [^3H]LTC4 Transport (% of control): 100 nM [^3H]LTC4, 3 min at 37° C., human platelet vesicles.

For the compound `CN(C)C(=O)CCSC(SCCC(=O)O)c1cccc(/C=C/c2ccc3ccc(Cl)cc3n2)c1` (centres unmarked) [MK571], the “ATP-dep. [^3H]LTB4 Transport (% of control)” value is 60 ± 4 % of control in assay [1] (compound 10 μM) and 47 ± 2 % of control in assay [1] (compound 20 μM). The “ATP-dep. [^3H]LTC4 Transport (% of control)” value is given as 89 ± 6 % of control in assay [2] (compound 10 μM, absence of GSH) and 68 ± 3 % of control in assay [2] (compound 20 μM, absence of GSH).
Regarding `OCCN(CCO)c1nc(N2CCCCC2)c2nc(N(CCO)CCO)nc(N3CCCCC3)c2n1` [Dipyridamole, dipyridamole], in assay [1] (compound 10 μM), the “ATP-dep. [^3H]LTB4 Transport (% of control)” value is 57 ± 3 % of control.
`CCCCCC=CCC=CCC=CC=CC(O)CCCC(=O)O` (centres unmarked) [5-Hydroxy-6,8,11,14-eicosatetraenoate]: in assay [1] (compound 1 μM), the “ATP-dep. [^3H]LTB4 Transport (% of control)” value is 86 ± 7 % of control.
Consider `O=C1C(CC[S+]([O-])c2ccccc2)C(=O)N(c2ccccc2)N1c1ccccc1` (centres unmarked) [Sulfinpyrazone, sulfinpyrazone], for which the “ATP-dep. [^3H]LTB4 Transport (% of control)” value in assay [1] (compound 100 μM) was 73 ± 7 % of control.
As to `CCCCC/C=C\C\C=C/C=C/C=C/[C@@H](SC[C@H](NC(=O)CC[C@H](N)C(=O)O)C(=O)NCC(=O)O)[C@@H](O)CCCC(=O)O` [LTC4, leukotriene C4], the “ATP-dep. [^3H]LTB4 Transport (% of control)” value in assay [1] (compound 1 μM) is 39 ± 4 % of control.
In the case of cholyltaurine, in assay [1] (compound 10 μM), the “ATP-dep. [^3H]LTB4 Transport (% of control)” value is on record as 39 ± 2 % of control.
Turning to `CCCCC/C=C\C\C=C/C=C/C=C/[C@@H](SC[C@H](N)C(=O)NCC(=O)O)[C@@H](O)CCCC(=O)O` [LTD4, leukotriene D4], the “ATP-dep. [^3H]LTB4 Transport (% of control)” value in assay [1] (compound 1 μM) is listed as 67 ± 9 % of control.
Turning to `CSc1ccc(/C=C2/C(C)=C(CC(=O)O)c3cc(F)ccc32)cc1` [Sulindac sulfide, sulindac sulfide], the “ATP-dep. [^3H]LTB4 Transport (% of control)” value is listed as 38 ± 4 % of control in assay [1] (compound 1 μM) and 26 ± 3 % of control in assay [1] (compound 10 μM). Further, in assay [2] (10 μM, absence of GSH, platelets), the “inhibition of LTC4 transport (in words)” value is on record as “did not inhibit”. The “ATP-dep. [^3H]LTC4 Transport (% of control)” value in assay [2] (compound 1 μM + 5 mM GSH) is listed as 63 ± 6 % of control; in assay [2] (compound 1 μM, absence of GSH), 99 ± 5 % of control; in assay [2] (compound 10 μM + 5 mM GSH), 2 ± 0.5 % of control; in assay [2] (compound 10 μM, absence of GSH) it was 108 ± 2 % of control. The “inhibition of LTC4 transport” value in assay [2] (presence of 5 mM GSH, platelets) is 90%.
With `CCCCCC=CCC(O)C=CC=CCC=CCCCC(=O)O` (centres unmarked) [12-Hydroxy-5,8,10,14-eicosatetraenoate, 12-hydroxy-5,8,10,14-eicosatetraenoate], the “ATP-dep. [^3H]LTB4 Transport (% of control)” value in assay [1] (compound 1 μM) is reported as 106 ± 6 % of control.
`CCCCC[C@H](O)/C=C/[C@H]1[C@H](O)CC(=O)[C@@H]1C/C=C\CCCC(=O)O` [Prostaglandin E2, prostaglandin E2]: the “ATP-dep. [^3H]LTB4 Transport (% of control)” value in assay [1] (compound 10 μM) was 46 ± 5 % of control.
As for `CCCCCCCCCCSC[C@H](NC(=O)CC[C@H](N)C(=O)O)C(=O)NCC(=O)O` [S-Decyl GSH, S-decyl glutathione], the figures for the “ATP-dep. [^3H]LTB4 Transport (% of control)” value in assay [1] (compound 1 μM) and in assay [1] (compound 10 μM) were 65 ± 6 % of control and 26 ± 3 % of control, respectively. Further, in assay [2] (1 μM, vesicles from human platelets), the inhibition at 1 µM stood at 58%. Moreover, the “ATP-dep. [^3H]LTC4 Transport (% of control)” value in assay [2] (compound 1 μM, absence of GSH) is on record as 42 ± 2 % of control; in assay [2] (compound 10 μM, absence of GSH), 11 ± 1 % of control.
For `CCCN(CCC)S(=O)(=O)c1ccc(C(=O)O)cc1` [Probenecid, probenecid], in assay [1] (compound 100 μM), the “ATP-dep. [^3H]LTB4 Transport (% of control)” value was 73 ± 7 % of control.
